In PubChem BioAssay AID761 (NMMLSC, 2007):
The campaign covered roughly 190,000 compounds. About 400 (0.21%) were called active. The shares of active, inactive and inconclusive entries below differ from those in the screen.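 The calls were made as follows: active = percent activity GTP binding at least 20 points away from the 100% baseline, either down as inhibitor or up as activator; inconclusive = compound flagged as likely green fluorescent from well-wide comparison; inactive = the rest.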

molecular target: Cell division control protein 42 homolog (Homo sapiens) (UniProt P60953); assay: wildtype Cdc42 fluorescent GTP binding changes, either direction – biochemical, multiplex bead flow cytometry, Bodipy-GTP, primary screen (AID 761); settings: GST-Cdc42 beads, at 10 µM, actives lie on both sides;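 also: median bead fluorescence of bound Bodipy-FL-GTP at 100 nM; 0% = excess unlabeled GTP control and 100% = no compound control; below 100% means less GTP binding so inhibitor and above means activator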
Chain of UniProt P60953 (P60953 whole entry, looked up): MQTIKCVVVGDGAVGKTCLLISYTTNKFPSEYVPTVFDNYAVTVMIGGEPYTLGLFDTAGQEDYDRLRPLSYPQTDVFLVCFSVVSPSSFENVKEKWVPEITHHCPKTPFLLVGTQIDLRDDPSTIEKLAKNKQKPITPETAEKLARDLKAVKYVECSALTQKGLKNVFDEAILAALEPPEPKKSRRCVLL

Row | SMILES | percent activity (GTP binding)
1 | O=C(O)c1ccc(Oc2ccc(C(F)(F)F)cn2)cc1 | inconclusive: 94%
2 | CC1C2CC(C(S(=O)(=O)N3CCOCC3)C2=O)C1(C)C (stereo not drawn) | inconclusive: 104%
3 | O=c1[nH]c(=O)c2cc([N+](=O)[O-])cc([N+](=O)[O-])c2[nH]1 | inconclusive: 85%
4 | O=c1c2cccc3c2c(nn1-c1ccccc1)-c1ccccc1-3 | inconclusive: 87%
5 | CC(=O)Nc1ccc(S(=O)(=O)NC2=C(N3CCN(c4ccc(F)cc4)CC3)C(=O)c3ccccc3C2=O)cc1 | inconclusive: 91%
6 | CC(=O)Nc1ccc(NC(=O)C2CCCN2C(=O)Nc2ccccc2[N+](=O)[O-])cc1 (stereo not drawn) | inconclusive: 95%
7 | CCN(Cc1cnn(C)c1)C(=O)c1ccc(OC2CCN(S(=O)(=O)N(C)C)CC2)cc1 | inconclusive: 96%
8 | Cn1c(CN2CCCC(C(=O)c3ccc4c(c3)OCO4)C2)nc2ccccc21 (stereo not drawn) | inactive: 93%
9 | CCOc1ccc(N2C(=O)CN(CC(=O)OC)C2=S)cc1 | inactive: 100%
10 | Brc1cccc(-c2nnc3sc(CN4CCCCC4)cn23)c1 | inconclusive: 107%
11 | O=c1c2cn[nH]c2[nH]c(=S)n1-c1ccccc1 | inconclusive: 104%
12 | O=C(c1ccccc1)c1c(O)nc(-c2ccccc2)n(-c2ccccc2)c1=O | inconclusive: 90%
13 | COc1cc2[nH]c(=S)nc(NCC3CCCO3)c2cc1OC (stereo not drawn) | active: 74%
14 | O=C(NCc1ccc(F)cc1)c1ccc(Br)o1 | inactive: 95%
15 | Cc1ccc(/C=C2\SC(=S)N(C(Cc3ccccc3)C(=O)O)C2=O)cc1 (stereo not drawn) | inactive: 82%
16 | O=C(Nc1ccc(N2CCOCC2)cc1)Nc1ccc2nc(-c3ccco3)c(-c3ccco3)nc2c1 | inconclusive: 91%
17 | COC(=O)[C@@H](NC(=O)/C=C/c1ccc(OC)cc1)C(C)C | inconclusive: 94%
18 | COc1ccc(C2CC(c3ccccc3)=NN2c2ccc(S(N)(=O)=O)cc2)cc1 (stereo not drawn) | active: 78%
19 | O=C(CN1C(=O)C2C3c4ccccc4C(c4ccccc43)C2C1=O)Nc1cccc(C(=O)O)c1 (stereo not drawn) | active: 125% [activator]
20 | Cc1cccc2sc(NNC(=O)c3cc(=O)c4ccccc4o3)nc12 | active: 77%
21 | S=C(NCCc1ccccc1)N1CCn2cccc2C1c1cccnc1 (stereo not drawn) | active: 78%
22 | COC(=O)c1cc(OC)c(OC)cc1NC(=S)N1CCN(C/C=C/c2ccccc2)CC1 | inconclusive: 95%
23 | COc1ccc(CC(=O)NNS(=O)(=O)c2ccccc2)cc1OC | inconclusive: 111%
24 | CCCCCCCCCCCC(=O)c1c(O)cccc1O | active: 79%

Row | SMILES | percent activity (GTP binding)
25 | O=C(Oc1ccc(OC(=O)c2ccco2)c(S(=O)(=O)c2ccc(Br)cc2)c1)c1ccco1 | inconclusive: 95%
26 | O=C(NCc1nc2ccccc2[nH]1)c1cccc(S(=O)(=O)N2CCOCC2)c1 | inconclusive: 104%
27 | COC(=O)CN1C(=O)C2(C(C#N)=C(N)Oc3n[nH]c(-c4cccs4)c32)c2ccccc21 (stereo not drawn) | inconclusive: 90%
28 | C/C(=N\NS(=O)(=O)c1cccc([N+](=O)[O-])c1)c1cccnc1 | inactive: 99%
29 | CC(C)(C)NC(=O)NC(=O)COC(=O)c1cccc(S(=O)(=O)N2CCCCC2)c1 | inactive: 99%
30 | CC(C)c1nc2sc3c(=O)[nH]c(=S)[nH]c3c2c2c1CCC2 | inactive: 100%
31 | COc1ccc(NC(=S)N(CCN(C)C)C(C)c2ccco2)cc1Cl (stereo not drawn) | inconclusive: 121%
32 | O=C(O)c1cn(CCOc2ccccc2Cl)c2ccccc12 | inactive: 117%
33 | CCOc1ccccc1CN(CCc1ccc2c(c1)OCO2)Cc1ccccn1 | inconclusive: 111%
34 | COc1ccc(CNCC(O)(c2ccc(F)cc2)c2ccc(F)cc2)cc1 | inactive: 104%
35 | COc1cc(/C=N/NC(=O)c2ccncc2)ccc1OC(=O)c1ccccc1Cl | inconclusive: 93%
36 | CC(C)CNC(=O)c1ccccc1NC(=O)CSCc1ccccc1 | inactive: 103%
37 | COC12NC(=O)N(C)C1(OC)C(=O)N(C)C(=O)N2C (stereo not drawn) | inactive: 102%
38 | Cc1cc(C=O)c(C)n1-c1cc(C(=O)O)cc(C(=O)O)c1 | inconclusive: 91%
39 | Cc1cc(Cl)ccc1NC(=S)Nc1ccccn1 | inconclusive: 98%
40 | Cc1sc2ncnc(OCC(=O)NC(C)C)c2c1C | inconclusive: 107%
41 | CCCS(=O)(=O)N1CCN(Cc2ccc3c(c2)c2ccccc2n3CC)CC1 | inactive: 103%
42 | CCOC(=O)c1cc2c(ccn2C)n1CC(=O)N1CCCC(C)C1 (stereo not drawn) | inconclusive: 93%
43 | Cc1nc2ncccn2c1-c1csc(Nc2ccc(N(C)C)cc2)n1 | inactive: 92%
44 | COc1cc(C)nc(SCC(N)=O)n1 | inconclusive: 92%
45 | CCN1/C(=C\C(=S)Nc2ccccc2)Sc2ccccc21 | inconclusive: 94%
46 | CCOC(=O)C1=NN(C(=O)c2ccc(OC)cc2)C(O)(c2ccc(Cl)cc2)C1 (stereo not drawn) | inactive: 100%
47 | Cc1ccccc1-n1c(=O)cc(N2CCc3ccccc3C2)[nH]c1=O | inconclusive: 104%
48 | Cn1c(N/N=C/c2cccs2)nc2c1c(=O)n(Cc1ccccc1)c(=O)n2C | inconclusive: 87%

Row | SMILES | percent activity (GTP binding)
49 | O=C(O)Cn1nnc(-c2cccs2)n1 | inconclusive: 113%
50 | CC(C)CN(CC(C)C)S(=O)(=O)N1CCC(C(=O)NCc2ccc3c(c2)OCO3)CC1 | inactive: 97%
51 | CCN(CC)CCCNc1ncnc2ccccc12 | inconclusive: 93%
52 | CCN(CC(=O)NC(C)C)C(=O)C(CCSC)NC(=O)c1cccc(C)c1 (stereo not drawn) | inactive: 97%
53 | Cn1c(CCNC(=O)c2ccc(Cl)c(Cl)c2)nnc1SCc1ccc(Cl)c(Cl)c1 | inconclusive: 95%
54 | CCCC(=O)NCn1nnc(-c2ccc(Cl)cc2)n1 | inconclusive: 216%
55 | Cc1nnc(NC(=O)c2ccccc2F)s1 | inconclusive: 91%
56 | O=C(CCn1cnc2ccccc2c1=O)Nc1cccc(Cl)c1Cl | inconclusive: 93%
57 | CCNC(=S)N(Cc1cccs1)Cc1cc2cc(OCC)ccc2[nH]c1=O | inconclusive: 154%
58 | COc1ccc(C)cc1NC(=O)COC(C)=O | active: 120% [activator]
59 | NS(=O)(=O)c1ccc(NC(=O)N[C@@H](Cc2ccccc2)C(=O)O)cc1 | inconclusive: 103%
60 | COc1ccc(/C=N/Nc2nnc(Cc3ccc(OC)c(OC)c3)c(=O)[nH]2)cc1OC | inconclusive: 88%
61 | Cc1cc(NC(=O)CSc2nnc(-c3cccnc3)n2Cc2ccccc2)no1 | inconclusive: 94%
62 | O=C(N/C=C/c1ccccc1)Nc1ccc(Cl)cc1 | inconclusive: 97%
63 | COc1cc(/C=N/N=C2/SCC(=O)N2c2ccc(O)cc2)ccc1O | inactive: 101%
64 | CCOC(=O)N1CCN(C(=O)C2CCCN(S(=O)(=O)c3ccc(C)cc3)C2)CC1 (stereo not drawn) | inconclusive: 101%
65 | CCCN1C(=O)/C(=C\C=C2/Sc3ccccc3N2CC)SC1=S | active: 73%
66 | CCSc1nc2nc(C)cc(C)n2n1 | inactive: 97%
67 | CCOc1ccc(-n2c(SCC(=O)Nc3ccc(OC)cc3OC)nc3c(c2=O)SCC3)cc1 | inconclusive: 102%
68 | Cc1cc(-c2n[nH]c(=S)n2/N=C/c2cc([N+](=O)[O-])ccc2Cl)n[nH]1 | inactive: 85%
69 | O=C(O)c1cn(Cc2ccccc2Cl)c2ccc(S(=O)(=O)N3CCOCC3)cc2c1=O | inconclusive: 94%
70 | O=C(NC(NCc1ccccn1)(C(F)(F)F)C(F)(F)F)c1ccco1 | inconclusive: 111%
71 | COc1ccccc1C(=O)N(CN1CCCC1=O)c1cccc(Cl)c1 | inconclusive: 108%
72 | CC(=O)NC(=S)Nc1ccccc1F | inconclusive: 97%

Row | SMILES | percent activity (GTP binding)
73 | Fc1cc(F)c2nc(Nc3nc4cc5c(cc4s3)OCO5)sc2c1 | inconclusive: 92%
74 | C/C(=N\Nc1ccc(S(N)(=O)=O)cc1[N+](=O)[O-])c1ccc2c(c1)OCO2 | inactive: 84%
75 | CCOC(=O)C(NC(=O)c1ccccc1)=C1C=C(C)OC(C)=C1 | inconclusive: 87%
76 | Brc1ccc(CSc2ccc3nnc(-c4cccnc4)n3n2)cc1 | inconclusive: 89%
77 | COCc1c(C)cc(C)c(/C=N/O)c1C | inactive: 99%
78 | O=C(c1cccc(C(=O)N2CCN(c3ncccn3)CC2)c1)N1CCN(c2ncccn2)CC1 | inconclusive: 108%
79 | O=C(COC(=O)/C=C/c1ccc2c(c1)OCO2)Nc1ccc(S(=O)(=O)N2CCCC2)cc1 | inconclusive: 94%
80 | CCOC(=O)Cn1c(-c2ccccn2)nc2ccccc21 | inconclusive: 97%
81 | Fc1ccc(NC(=S)N2CCc3ccccc3C2)c(F)c1 | inactive: 95%
82 | Cc1ccc(C(=O)N/N=C(/CC(=O)c2cccs2)C(F)(F)F)cc1 | inconclusive: 93%
83 | O=C(O)C1CCCCC1C(=O)NCc1ccc(Cl)c(Cl)c1 (stereo not drawn) | inconclusive: 92%
84 | Cc1cc(=O)n2nc(N3CCCC(C(=O)N4CCN(c5ccccc5)CC4)C3)sc2n1 (stereo not drawn) | inconclusive: 105%
85 | COc1ccc2[nH]c3c(=O)n4c(nc3c2c1)SCCC4 | inconclusive: 90%
86 | Cc1ccc(/C=N/n2c(COc3ccccc3)n[nH]c2=S)o1 | inconclusive: 93%
87 | Cc1nnsc1C(=O)NNS(=O)(=O)c1ccccc1 | inconclusive: 108%
88 | Cn1c(=O)c2c(nc(N3CCCCCC3)n2CC(=O)c2ccc(Br)cc2)n(C)c1=O | inconclusive: 106%
89 | O=C(Nc1nnc(CC(=O)N2CCOCC2)s1)C1COc2ccccc2O1 (stereo not drawn) | inconclusive: 102%
90 | Cc1ccc2c(c1)NC(=O)C(CC(=O)NCCN(C)C)O2 (stereo not drawn) | inconclusive: 106%
91 | N#CC(C#N)=C1C=C2C=C(N3CCCCCC3)CCC2CC1 (stereo not drawn) | inconclusive: 118%
92 | O=C(N/N=C/c1ccccc1)c1ccc(OCc2ccccc2)cc1 | inactive: 99%
93 | Cn1nnc2cc(NC(=O)N3CC4(C)CC3CC(C)(C)C4)ccc21 (stereo not drawn) | inconclusive: 104%
